Laboratory results reported in PubChem BioAssay AID1963576 (National Center for Advancing Translational Sciences (NCATS), 2024).
About 60 (0.1%) of roughly 46,000 compounds were called active. Not shown: some 3% with an inconclusive outcome. The call rests on the fitted dose curve; in most records, active means well fitted inhibition curve with a large enough effect; inconclusive means small, poorly fitted or top-dose-only effect; inactive means no such curve, though single readings can be large or run the other way. This is one part of the list.

Assay: Primary qHTS assay for Inhibitors of ovarian cancer metastasis using an organotypic tumor microenvironment (TME) model. Further: nearly all actives have a fitted effect of over 65% in size.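 On activity change, negative = inhibition: plate controls were DMSO wells for no effect and tomatine positive control wells for full effect.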
Details: SKOV3ip1-GFP adhesion/invasion on 3D omental model, fluorescence; series mostly up to 45.8 µM; activity change, negative = inhibition: at the top concentration
Procedure, shortened: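 A 3D layer of primary human omental fibroblasts, mesothelial cells, fibronectin and collagen I, grown 48 hr, received SKOV3ip1-GFP cells in serum-free medium plus compounds at 0.36-46 umol/L. After 2 hr RT and 16 hr 37 C, fixed adherent GFP cells were counted; normalized to DMSO and tomatine.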

| Structure (SMILES) | activity change, negative = inhibition | outcome |
| --- | --- | --- |
| CC(=O)c1nnn(-c2ccc(C)cc2Cl)c1C | inactive: -17.7% | – |
| O=C(CCn1cnnn1)Nc1cc(C(F)(F)F)cc(C(F)(F)F)c1 | – | inactive |
| CC(=O)c1ccc(Nc2ccc3cc(S(=O)(=O)N4CCCC4)ccc3n2)cc1 | inactive: 2.11% | – |
| O=C(Nc1cccc(C(=O)N2CCN(c3cccc(Cl)c3)CC2)c1)c1nsc2ccccc12 | inactive: 7.99% | – |
| COc1cc(OC)c(NC(=O)c2nn(-c3ccc(C)cc3)c(=O)c3c2c2ccccc2n3C)cc1Cl | inactive: 1.61% | – |
| CCOC(=O)C1CCN(C(=O)c2ccc(NC(=O)c3nsc4ccccc34)cc2)CC1 | inactive: 1.21% | – |
| CCOc1ccc(C2c3c(oc4ccc(C)cc4c3=O)C(=O)N2CCCN(C)C)cc1 (configuration not stated) | inactive: 32.5% | – |
| CSc1ccc(CCNC(=O)C(C)n2nc(C)c3sc4ccccc4c3c2=O)cc1 (configuration not stated) | inactive: 5.37% | – |
| CCc1ccccc1NC(=O)c1ccc2c(SCC(=O)O)c3c(nc2c1)CCC3 | – | inactive |
| Cc1ccccc1Cn1c2ccccc2c2cnn(CC(=O)NCC(C)c3ccccc3)c(=O)c21 (configuration not stated) | inactive: 0.323% | – |
| O=C(NCc1ccccc1Cl)c1ccc(Cn2c(SCc3ccccc3)nc3cccnc32)cc1 | inactive: 4.71% | – |
| Cc1ccc(NC(=O)c2ccc(CNS(=O)(=O)c3ccc4c(c3)C(C)(C)C(=O)N4C)cc2)cc1C | inactive: 4.3% | – |
| CC(=O)N1c2ccc(S(=O)(=O)NCC3CCC(C(=O)Nc4ccc(C)c(C)c4)CC3)cc2CC1C (configuration not stated) | inactive: -9.44% | – |
| Cc1cc(C(=O)NCc2cccc(Br)c2)c2c(C)nn(-c3ccccc3)c2n1 | inactive: -0.569% | – |
| O=C(CCn1ccc2cc(S(=O)(=O)N3CCCC3)ccc21)NCc1cccc(Cl)c1 | inactive: 3.85% | – |
| Cc1cc(C)c2c(-n3cccc3)c(C(=O)NCc3cccc(F)c3)sc2n1 | inactive: -3.8% | – |
| CCOc1ccc(NC(=O)c2nc3nc(C)cc(C(F)F)n3n2)cc1 | inactive: -0.347% | – |
| COCCCn1c(=N)c(C(=O)NCc2cccnc2)cc2c(=O)n3cc(C)ccc3nc21 | – | inactive |
| COc1ccc(OC)c(Nc2ncnc3c2nc2n3CCCC2)c1 | inactive: 19.1% | – |
| COc1cc(CCNC(=O)c2ccc3c(c2)c(C)c(C)n3Cc2cccc(C)c2)cc(OC)c1OC | inactive: 9.55% | – |
| COc1ccc(-c2cc(=O)c3cc(OCC(=O)OC(C)C)ccc3o2)cc1 | inactive: 1.25% | – |
| Oc1ccc(-c2nc(-c3ccccc3)c(-c3ccc(Br)cc3)[nH]2)cc1 | inactive: -20.9% | – |
| Cc1nn(-c2ccccc2)c2c1cc1c(=O)n(C)c(=O)nc-1n2-c1cccc(Cl)c1 | – | inactive |

| Structure (SMILES) | activity change, negative = inhibition | outcome |
| --- | --- | --- |
| O=C(COC(=O)C(Cc1c[nH]c2ccccc12)NC(=O)c1ccc(Cl)cc1)c1ccc(Cl)cc1 (configuration not stated) | inactive: 4.74% | – |
| COc1ccccc1NC(=O)C1CCN(S(=O)(=O)c2ccc3[nH]c4c(c3c2)CCCCC4)CC1 | inactive: -1.93% | – |
| CCN1CCN(C(c2ccc(SC)cc2)c2c(O)cc(C)n(Cc3ccco3)c2=O)CC1 (configuration not stated) | – | inactive |
| Cc1cc(C)c(NC(=O)CCn2c(=O)c3cccn3c3ccccc32)c(C)c1 | inactive: -4.56% | – |
| CCc1c(C)sc2c1CCN(C(=O)Nc1cc(C)cc(C)c1)C2c1ccccc1 (configuration not stated) | inactive: -1.63% | – |
| COc1cc(NC(=O)CCS(=O)(=O)c2nc(-c3ccc4c(c3)OCO4)cc(C(F)(F)F)n2)cc(OC)c1OC | inactive: 2.11% | – |
| COC(=O)c1sc(N2C(=O)c3oc4ccccc4c(=O)c3C2c2ccc(O)cc2)nc1C (configuration not stated) | inactive: 1.69% | – |
| Cc1ccc(NC(=O)Cn2c(=O)n(CCCCC(=O)NCCc3ccc(Cl)cc3)c(=O)c3ccccc32)cc1 | inactive: 94% | – |
| COc1ccc(CNC(=O)CN2C(=O)COc3ccc(S(=O)(=O)N4CCC(C)CC4)cc32)cc1 | – | inactive |
| COc1ccc(CCNC(=O)c2oc(=O)c3ccccc3c2-c2ccccc2)cc1OC | inactive: -8.58% | – |
| Cc1nc(NC(=O)c2c(-c3ccccc3)c(-c3ccccc3)nn(C)c2=O)sc1C | inactive: -13% | – |
| CCCCNC(=O)C1CCC(CNS(=O)(=O)c2ccc(C)cc2)CC1 (configuration not stated) | inactive: -3.12% | – |
| COCCCNC(=O)CSc1nc2cc3c(cc2c(=O)n1CCCCCC(=O)NCc1ccc2c(c1)OCO2)OCO3 | inactive: -4.68% | – |
| CCc1ccc(S(=O)(=O)Nc2ccc3[nH]c(=O)sc3c2)cc1 | inactive: -7.65% | – |
| Cc1cccc(NC(=O)c2sc3nc4c(cc3c2N)CN(C(C)C)CC4)c1 | inactive: 0.531% | – |
| CC1=C(C(=O)OC2CCCCCC2)C(c2cccc(F)c2F)CC(=O)N1 (configuration not stated) | inactive: -4.95% | – |
| CCC1CCCCN1C(=O)CSc1nc(-c2ccc(OC)c(OC)c2)cc(C(F)(F)F)n1 (configuration not stated) | inactive: -1.57% | – |
| Cc1nc2cc(C(=O)NC3CCCCCC3)ccc2n1-c1ccc(Br)cc1 | inactive: 4.04% | – |
| CC(=O)N1CCc2cc(Br)cc(S(=O)(=O)CCC(=O)N3CCN(c4ccccc4)CC3)c21 | inactive: -1.54% | – |
| Cc1cc([N+](=O)[O-])ccc1NC(c1nnc(-c2ccccc2)o1)c1ccccc1F (configuration not stated) | inactive: -3.13% | – |
| Fc1ccc(Nc2nc(SCc3ccccc3F)nc3ccccc23)cc1 | inactive: -9.37% | – |
| CCOC(=O)c1cc2c(=O)n3ccccc3nc2n(Cc2ccco2)c1=NC(=O)c1cccc(F)c1 | – | inactive |
| Cc1ccc(Cn2c(SCC(=O)NCc3ccccc3Cl)nc3ccsc3c2=O)cc1 | inactive: -6.6% | – |

| Structure (SMILES) | activity change, negative = inhibition | outcome |
| --- | --- | --- |
| COc1cc(NC(=O)CCCc2nnc3n(CC(C)C)c(=O)c4sccc4n23)cc(OC)c1 | inactive: 10.5% | – |
| CN(C)S(=O)(=O)c1ccc2c(c1)N(CC(=O)Nc1ccc(F)cc1)C(=O)CS2 | – | inactive |
| CCOc1ccc2nc(N3CCCC(C(=O)Nc4ccc(OC)c(Cl)c4)C3)sc2c1 (configuration not stated) | inactive: -0.256% | – |
| Cc1cc(-c2ccc(C)c(S(=O)(=O)NCCc3ccc(S(N)(=O)=O)cc3)c2)on1 | inactive: 17% | – |
| CC(C)c1ccc(NS(=O)(=O)c2ccc3[nH]cc(C(=O)NCC4CCCO4)c(=O)c3c2)cc1 (configuration not stated) | inactive: -0.471% | – |
| COc1cccc(OCC(=O)NC2CC(=O)N(c3ccc4c(c3)OCCO4)C2)c1 (configuration not stated) | – | inactive |
| COc1cc(OC)c(NC(=O)n2ncc3cc(Cl)ccc32)cc1Cl | inactive: 6.45% | – |
| COc1ccc(OC)c(NC(=O)CSC2=Nc3ccccc3C3=NC(CC(=O)NCc4ccc(F)cc4)C(=O)N23)c1 (configuration not stated) | inactive: -3.73% | – |
| COc1ccc(C2CC(=O)c3c([nH]c(C(=O)OC4CCCCCC4)c3C)C2)cc1 (configuration not stated) | inactive: -0.177% | – |
| COC(=O)c1ccccc1NC(=O)c1cc(C)nc2c1c(C)nn2-c1ccc(C)cc1 | inactive: 8.16% | – |
| Cc1ccc(NC(=O)N2CCN(c3nnc(C)c4c(C)n(-c5ccc(Cl)cc5)nc34)CC2)c(C)c1 | inactive: 2.9% | – |
| Cc1ccc(CNC(=O)CSc2ncc(S(=O)(=O)c3ccc(C)c(Cl)c3)c(=O)[nH]2)cc1 | inactive: 8.3% | – |
| COc1ccc2c(c1)c1c(c(=O)n(-c3ccc(OC)c(OC)c3)c(=O)n1CC(=O)N1CCCC1)n2C | – | inactive |
| Cc1ccc2nc(-c3ccc(NC(=O)c4ccccc4S(C)(=O)=O)cc3)sc2c1 | – | inactive |
| O=C(Nc1ccccc1O)c1cc(S(=O)(=O)N2CCCC2)ccc1Cl | inactive: -22.9% | – |
| Cc1ccc(Cl)cc1NC(=O)NCc1cccn1Cc1ccc(F)cc1 | inactive: -1.58% | – |
| CCOc1ccc(OCC)c(NC(=O)CCc2nc3cccnc3n2Cc2cccs2)c1 | – | inactive |
| COc1ccc(-c2nc(C)c(CCNC(=O)c3c(F)cccc3F)s2)cc1 | – | inactive |
| Cc1cccc(Cc2c(C)nc3nc(SCc4ccccc4Cl)nn3c2C)c1 | inactive: 4.44% | – |
| Cc1ccc(C)c(Cn2c(=O)n(CCC(=O)NCc3ccc4c(c3)OCO4)c(=O)c3sccc32)c1 | – | inactive |
| CCCCNC(=O)CCCn1c(=O)c2ccccc2n(Cc2c(C)cc(C)cc2C)c1=O | – | inactive |
| COC(=O)N1CCCc2cc(S(=O)(=O)N3CCN(c4ccccc4)CC3)ccc21 | inactive: 2.91% | – |
| CN(C)c1ccc(CNC(=O)c2cnc3sc(N4CCCCCC4)nn3c2=O)cc1 | – | inactive |

| Structure (SMILES) | activity change, negative = inhibition | outcome |
| --- | --- | --- |
| CCOC(=O)c1cccc(NC(=O)CC2C(=O)N(c3ccc(C)cc3)C(=O)N2Cc2cccc(OC)c2)c1 (configuration not stated) | – | inactive |
| COc1cc(Cl)c(C)cc1NC(=O)CSc1nc2c(c(=O)[nH]1)CCCC2 | inactive: -0.634% | – |
| COc1cc(Cl)c(C)cc1NC(=O)CSc1cc(-c2ccccc2)nc(C)n1 | inactive: -22.2% | – |
| CCc1ccccc1NC(=O)Cn1c(=O)n(CC(=O)NCCc2ccccc2)c(=O)c2ccccc21 | – | inactive |
| COc1ccc(CC(=O)NCCc2csc(-c3ccc(C(F)(F)F)cc3)n2)cc1 | inactive: -19.9% | – |
| CCOC(=O)c1[nH]c(C)c(C(=O)NCc2cccc(OC)c2)c1C | inactive: -3.73% | – |
| CS(=O)(=O)n1nc(-c2ccco2)nc1NCc1ccccc1Cl | inactive: -3.1% | – |
| COc1ccc(C(=O)c2cn(Cc3cccc(C)c3)c3cc4c(cc3c2=O)OCO4)cc1 | inactive: 12.5% | – |
| CCOc1ccc(NC(=O)c2sc3ccccc3c2Cl)cc1 | inactive: -4.45% | – |
| COc1ccc(-c2noc(-c3ccc(C)cc3Cl)n2)cc1OC | – | inactive |
| COc1ccc(C2CC(=O)Nc3c2c(=O)n(C)c2nc4ccccc4n32)cc1 (configuration not stated) | – | inactive |
| Cc1ccc(NS(=O)(=O)c2ccc3c(c2)[C@H]2C=CC[C@H]2[C@@H](c2ccc(F)cc2)N3)cc1C | inactive: 2.99% | – |
| Cn1c(=O)c2c(SCC(=O)NCc3ccc(F)cc3)nc(-c3ccccc3Cl)nc2n(C)c1=O | inactive: 0.167% | – |
| Cc1c(/C=C(\C#N)C(=O)Nc2cccc(Cl)c2)c2ccccc2n1Cc1ccccc1 | inactive: 8.15% | – |
| COC(=O)c1sc2cccc(F)c2c1S(=O)(=O)Nc1ccc(C)cc1Cl | inactive: -13.8% | – |
| C[C@H](NC(=O)C(=O)Nc1ccccc1C(C)(C)C)C(=O)N[C@@H](CC(=O)O)C(=O)COc1c(F)c(F)cc(F)c1F | inactive: 13.8% | – |
| O=C(Nc1ccc2[nH]c(=O)c(=O)[nH]c2c1)c1cccc(F)c1 | inactive: -11.4% | – |
| Cc1ccc(SCc2nc(-c3ccc(C(=O)Nc4cc(C)ccc4C)cc3)oc2C)cc1 | inactive: -29.8% | – |
| O=C(Nc1nnc(C2CC(=O)N(c3ccc(Cl)cc3)C2)s1)c1ccco1 (configuration not stated) | inactive: 8% | – |
| Cc1ccc(NC(=O)CSc2nc3ccc(NC(=O)COc4ccc(C)cc4)cc3s2)cc1 | inactive: 9.55% | – |
| COc1ccccc1N1CCN(C(=O)CCn2nc(C)c(S(=O)(=O)N3CCCC3)c2C)CC1 | – | inactive |
| C[C@@H]1CN(Cc2ccc(F)cc2)[C@@H](C)CN1C(=O)c1cc2c(C(=O)C(=O)N(C)C)cn(C)c2cc1Cl | inactive: 5.4% | – |
| Cc1nc2c(-c3ccccc3)c(C)nn2c(C)c1CCC(=O)Nc1ccccc1F | – | inactive |
